Results: the supplement of paper PMC3334620
In all, about 33,000 sequences were measured (“E-score (-0.5 to 0.5)”: median about -0.016, highest 2% from about 0.32 on). Some of the results follow.

Biological target: T1, Stp1 (UniProt B3LFK1)
T1 sequence: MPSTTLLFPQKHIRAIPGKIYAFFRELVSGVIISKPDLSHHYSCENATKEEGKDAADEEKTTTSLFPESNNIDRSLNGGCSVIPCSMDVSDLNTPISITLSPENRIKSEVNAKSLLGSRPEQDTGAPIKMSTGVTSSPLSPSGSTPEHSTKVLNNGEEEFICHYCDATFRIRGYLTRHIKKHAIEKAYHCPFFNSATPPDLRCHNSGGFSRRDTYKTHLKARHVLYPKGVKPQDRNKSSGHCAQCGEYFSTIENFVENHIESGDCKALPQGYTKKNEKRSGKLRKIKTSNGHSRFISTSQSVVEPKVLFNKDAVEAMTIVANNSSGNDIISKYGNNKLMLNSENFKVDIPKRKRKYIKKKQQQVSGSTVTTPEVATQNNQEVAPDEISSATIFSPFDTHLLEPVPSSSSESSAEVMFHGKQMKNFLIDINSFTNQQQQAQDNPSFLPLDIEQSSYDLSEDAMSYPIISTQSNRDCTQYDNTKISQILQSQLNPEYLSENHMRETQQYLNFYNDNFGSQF
Test: PBM E-score (8-mer binding enrichment) (E-score (-0.5 to 0.5)); higher = stronger / more preferred TF binding; most listed sequences are background and not binding sites
Conditions: protein concentration: 200 nM; construct: GST-full length
How it was run: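 Bound GST-tagged yeast transcription factors, applied at about 100-200 nM to double-stranded universal all-10-mer Agilent arrays, were detected with fluorescent anti-GST. Scans were normalised with masliner. A modified Wilcoxon-Mann-Whitney statistic, the E-score, was assigned to each ungapped eight-base word pooled with its reverse complement by the Universal PBM Analysis Suite.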

Sequence	PBM E-score
GACGCATC	-0.18
CCGCTGTA	0.044
CGCCCACG	0.0827
CAATCGCA	0.154
ACGACTCA	-0.215
TCCCCGAA	-0.182
GGTCCTAA	-0.0551
GGGAAGTA	-0.102
CGCCTAGA	-0.0337
CATAGGCA	-0.0351
TCCCTTAA	-0.192
TTCTACAA	0.161
GTTGCAGA	0.0673
CCGGGTCC	-0.295
TAATACAA	0.0682
GATTATTA	-0.00214
AATTTAGA	0.0742
AAGATTAT	-0.0261
GGTGGCTA	0.0168
TCCGCCCA	-0.18
CCAACCGC	0.0116
AAATCCCA	-0.017
AAATATGC	0.176
CCGTATTA	0.27
GAATGGAC	-0.115

Sequence	PBM E-score
TAGGTATA	0.062
CTTTAGTA	-0.0729
AGCTGTGA	-0.132
AAATCCAG	-0.00717
GTTCGTAA	-0.00745
GTTGTCCA	-0.112
CAATAGTA	0.139
AAGTACTC	-0.141
AGAATGAT	0.0859
AAGGTCAA	-0.24
AACTCCAC	-0.0546
GCAGAGCA	-0.0964
CTTGCGAC	-0.0932
ATAGGGTA	-0.189
GAGTCCTA	-0.21
CTAGGATC	-0.106
ATTTGGAA	0.0474
TAATTCCA	0.0311
GTGCAGAA	0.141
AGATTAGC	-0.0227
AGAGACAG	-0.168
GACCAGGC	-0.211
ACGCTTAT	-0.056
GCGCCGGA	0.171
CCGGCAGA	-0.0739

Sequence	PBM E-score
CGGCGATC	0.373
CTCACATA	0.0137
TAGTGGAA	0.00152
TCGGTGCA	-0.0749
CATGCATA	0.0666
TGAAGGCA	0.0723
GCTTAACA	-0.0243
ATCGAGCC	0.173
CGGCCCCA	0.0342
GAACACAC	0.00772
AACCGGGA	-0.264
CAGCAGGA	-0.195
AAGGGAAG	0.00755
AGAATACG	0.0657
CTTGGTCC	-0.125
CACAACAG	-0.226
AAAGGTTC	-0.0601
TCAGTGCA	-0.178
CAAATCCG	0.00632
CAATGGTC	-0.0151
AACCCAGT	-0.11
GGGGGACC	-0.298
CGATCTAA	0.00519
AAAGCATT	0.0917
CCATGCAA	0.146

Sequence	PBM E-score
ACTGGCTG	-0.0827
GCGACTAC	-0.132
ACAACTCC	0.0899
AAGGTGTA	-0.18
CACTGCCA	0.0847
TAAAACTA	0.128
AATTAACA	0.0673
TGGCGACA	0.0759
ATCCGGGG	-0.0877
GTCGAAAA	0.0966
ATAATGGC	0.183
CAGTCCCA	-0.293
AATGCTCC	-0.148
CAACCTAG	-0.172
AGCCTGGG	-0.271
CTATACGC	0.00659
CTGCTTCC	-0.281
AGAAGTTC	0.0255
GTTACGCA	-0.0687
CCGCATCA	0.282
CAGTGGAA	-0.0152
AGATCCTG	-0.32
CAGTACCA	-0.167
CATGGCCA	-0.15
ACGATTAC	-0.0334

Sequence	PBM E-score
GATTAGGC	0.02
CCAGAGCA	-0.0297
CCTTAACC	-0.221
AATTGACG	-0.0215
CGGATACA	0.144
AGCGGGAA	0.105
ATGATCGC	-0.0857
CCCCTCTC	-0.353
AATTGATA	0.22
CTTCCTCA	-0.149
ATGACACA	0.206
GCAAGCAC	-0.119
TATACACA	0.119
ATGTCATG	0.0282
GCCTGAGA	-0.195
AAGAACTC	0.0151
CAGTTAGA	0.031
CGAGACCA	-0.16
CGTCACAA	0.0793
ATCATGTA	0.0957
GATACCGC	0.0821
ATTCGTAA	0.0769
CTCGTTCC	0.0781
GGTAGCGA	-0.184
ACAAAATG	0.223

Sequence	PBM E-score
CTACAAGC	0.0892
CATGGGCG	0.0374
GGACGAGA	-0.12
CTAAGGTC	-0.214
ATACGCTG	-0.00337
TCCTATCA	-0.0558
ATTCTATA	0.189
CGAGGGAC	-0.245
AAGGTAAT	0.0497
CTACCTAG	-0.205
AACTGGCG	0.126
CTGCCCTA	-0.181
AAGAATGG	-0.0655
CGATCGTA	0.0188
AGTTTGCG	0.0886
AATATTTC	0.159
TAGGAGCA	-0.0313
CTAAGCCC	-0.243
GATGTCGA	0.0215
AACTCCAT	-0.0761
AAACGCGT	0.0336
GCGGTTCC	-0.075
CAATCTCA	0.00627
AAACCAGT	0.0102
CGGCCGCA	0.325

Sequence	PBM E-score
CGAACTCA	-0.141
GCAGCCAC	0.132
CCCGGTTA	-0.0439
ACCCTGTG	-0.0276
ATACTCCA	-0.044
GCACGACA	0.0543
TCGAGAGA	-0.116
AAAAGTCG	-0.00811
ACGGAATC	0.113
GATTCTAC	0.154
GTGATTAA	0.0766
CTACCAGC	-0.156
ATGACGAA	0.115
ACTCGGAC	-0.166
CAGAGGGC	0.0551
ACTACAGG	0.0819
AGTTTGAG	-0.0314
AGTATGAA	-0.0188
AGAAGCGG	0.117
CCGTGGGC	0.197
AGCCAGTC	-0.0837
AGACTGCC	0.0841
